From article PMC5892938
Some of the results follow. At the low end of the ranking the order means little.

biological target: GST-SBP-SLBP (stem-loop binding protein) (UniProt Q14493); test: targeted RNA Bind-n-Seq; conditions: RBNS binding buffer: 25 mM Tris pH 7.5, 150 mM KCl, 3 mM MgCl2, 0.1% Tween, 0.5 mg/mL BSA, 1 mM DTT; 27 nM protein, 750 pM RNA pool; temperature not stated; high values mean tight binding;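 further: DESeq read counts versus GST-SBP nonspecific binding control pulldown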

Sequence	binding signal (log2 fold change)
GGUCACGUCUCAAUCAACUCAAUUCCAGGAGUUUCCUCCUGUUUUCUCAACAGCUCGCAGUCAAG	0.113
GGUCACGUCUCAAUCAACUCAUCCUCCAGGGAAAGCCCUGGCUAAUUCAACAGCUCGCAGUCAAG	0.254
GGUCACGUCUCAAUCAACUCAAUUCCCAGGGAAACCCCUGGCUAACUCAACAGCUCGCAGUCAAG	-0.0125
GGUCACGUCUCAAUCAACUCAAACGAGGGGGGGAAAACCCCUUUACCCUCCAUUUCAACAGCUCGCAGUCAAG	0.106
GGUCACGUCUCAAUCAACUCCAUCGAGGGGGGGAAAACCCCUUUACCCUCUACAUCAACAGCUCGCAGUCAAG	-0.249
GGUCACGUCUCAAUCAACUCAUGUCCAGGAGUUUUCUCCUGUUAAUUCAACAGCUCGCAGUCAAG	-0.0274
GGUCACGUCUCAAUCAACUCUCUAGAGGGGGGGAAAACCCCUUUACCCUCAACUUCAACAGCUCGCAGUCAAG	-0.0416
GGUCACGUCUCAAUCAACUCAUUCUCCAGGGAAAUCCCUGGCAUUUUCAACAGCUCGCAGUCAAG	-0.0443
GGUCACGUCUCAAUCAACUCAUCGUCAGGAGUUUACUCCUGUUAACUCAACAGCUCGCAGUCAAG	-0.114
GGUCACGUCUCAAUCAACUCUAUUUCAGGAGUUUACUCCUGCUAUUUCAACAGCUCGCAGUCAAG	0.101
GGUCACGUCUCAAUCAACUCUUUUCCCAGGGAAAACCCUGGUUUUCUCAACAGCUCGCAGUCAAG	0.141
GGUCACGUCUCAAUCAACUCUUCUCCCAGGGAAAUCCCUGGUAAUCUCAACAGCUCGCAGUCAAG	0.041
GGUCACGUCUCAAUCAACUCUUUUCCAGGAGUUUUCUCCUGUUUUUUCAACAGCUCGCAGUCAAG	0.135
GGUCACGUCUCAAUCAACUCACUAGAGGGGGGGAAAACCCCUUUACCCUCGUUAUCAACAGCUCGCAGUCAAG	-0.0946
GGUCACGUCUCAAUCAACUCUAUUCCAGGAGUUUACUCCUGUAUACUCAACAGCUCGCAGUCAAG	0.0985
GGUCACGUCUCAAUCAACUCUUCCCCCAGGGAAAACCCUGGCAAAUUCAACAGCUCGCAGUCAAG	0.235
GGUCACGUCUCAAUCAACUCUUUCGCAGGAGUUUCCUCCUGGUAUCUCAACAGCUCGCAGUCAAG	0.0128
GGUCACGUCUCAAUCAACUCUACUCCAGGAGUUUACUCCUGCUUAUUCAACAGCUCGCAGUCAAG	-0.277
GGUCACGUCUCAAUCAACUCCUUAGAGGGGGGGAAAACCCCUUUACCCUCGUCAUCAACAGCUCGCAGUCAAG	0.106
GGUCACGUCUCAAUCAACUCUUUCGCAGGAGUUUACUCCUGGUUUUUCAACAGCUCGCAGUCAAG	-0.098
GGUCACGUCUCAAUCAACUCAGUCCCAGGAGUUUCCUCCUGCAAAUUCAACAGCUCGCAGUCAAG	-0.101
GGUCACGUCUCAAUCAACUCAACUCCAGGAGUUUACUCCUGUUUUCUCAACAGCUCGCAGUCAAG	-0.0938
GGUCACGUCUCAAUCAACUCUCUAGAGGGGGGGAAAACCCCUUUGCCCUCAACUUCAACAGCUCGCAGUCAAG	0.124
GGUCACGUCUCAAUCAACUCUUAAGAGGGGGGGAAAACCCCUUUGCCCUCAACUUCAACAGCUCGCAGUCAAG	0.148
GGUCACGUCUCAAUCAACUCUUUUUCCAGGGAAAUCCCUGGCUAACUCAACAGCUCGCAGUCAAG	-0.096

Sequence	binding signal (log2 fold change)
GGUCACGUCUCAAUCAACUCUAUUCCCAGGGAAAUCCCUGGCUAUCUCAACAGCUCGCAGUCAAG	0.0246
GGUCACGUCUCAAUCAACUCUUCCUCCAGGGAAAGCCCUGGUAUUUUCAACAGCUCGCAGUCAAG	-0.0981
GGUCACGUCUCAAUCAACUCUAUCCCCAGGGAAACCCCUGGCUAAUUCAACAGCUCGCAGUCAAG	0.12
GGUCACGUCUCAAUCAACUCAAUCUCAGGAGUUUACUCCUGUUUUCUCAACAGCUCGCAGUCAAG	-0.0401
GGUCACGUCUCAAUCAACUCUUCUCCCAGGGAAAACCCUGGUAAAUUCAACAGCUCGCAGUCAAG	-0.223
GGUCACGUCUCAAUCAACUCAGUCUCCAGGGAAAACCCUGGCAUUUUCAACAGCUCGCAGUCAAG	-0.2
GGUCACGUCUCAAUCAACUCCUAAGAGGGGGGGAAAACCCCUUUACCCUCCAACUCAACAGCUCGCAGUCAAG	-0.209
GGUCACGUCUCAAUCAACUCAAUCUCAGGAGUUUACUCCUGCUAUCUCAACAGCUCGCAGUCAAG	0.0959
GGUCACGUCUCAAUCAACUCUUUUUCAGGAGUUUUCUCCUGUAAAUUCAACAGCUCGCAGUCAAG	0.0343
GGUCACGUCUCAAUCAACUCUUCGCCAGGAGUUUCCUCCUGCUUAUUCAACAGCUCGCAGUCAAG	0.128
GGUCACGUCUCAAUCAACUCUAUUCCAGGAGUUUCCUCCUGUAUAUUCAACAGCUCGCAGUCAAG	0.0428
GGUCACGUCUCAAUCAACUCUAACGAGGGGGGGAAAACCCCUUUGCCCUCAAAUUCAACAGCUCGCAGUCAAG	-0.226
GGUCACGUCUCAAUCAACUCAUCUCCAGGAGUUUUCUCCUGUUUAUUCAACAGCUCGCAGUCAAG	-0.0179
GGUCACGUCUCAAUCAACUCAUCCCCCAGGGAAACCCCUGGCUUACUCAACAGCUCGCAGUCAAG	-0.0842
GGUCACGUCUCAAUCAACUCAAUCCCAGGAGUUUGCUCCUGUAAUCUCAACAGCUCGCAGUCAAG	0.231
GGUCACGUCUCAAUCAACUCAUCGCCAGGAGUUUACUCCUGUAUUUUCAACAGCUCGCAGUCAAG	-0.0228
GGUCACGUCUCAAUCAACUCUUCCCCCAGGGAAAACCCUGGUUAUUUCAACAGCUCGCAGUCAAG	0.0358
GGUCACGUCUCAAUCAACUCUACGGAGGGGGGGAAAACCCCUUUACCCUCAAUCUCAACAGCUCGCAGUCAAG	0.159
GGUCACGUCUCAAUCAACUCAAUCCCAGGAGUUUACUCCUGUAAUGUCAACAGCUCGCAGUCAAG	-0.0722
GGUCACGUCUCAAUCAACUCUUCUCCAGGAGUUUCCUCCUGCUAAUUCAACAGCUCGCAGUCAAG	0.0406
GGUCACGUCUCAAUCAACUCAUGUCCCAGGGAAACCCCUGGCUUUUUCAACAGCUCGCAGUCAAG	0.00746
GGUCACGUCUCAAUCAACUCUACAGAGGGGGGGAAAACCCCUUUACCCUCCCAUUCAACAGCUCGCAGUCAAG	-0.0307
GGUCACGUCUCAAUCAACUCUUUCUCAGGAGUUUCCUCCUGUAUUCUCAACAGCUCGCAGUCAAG	-0.0932
GGUCACGUCUCAAUCAACUCUUCGUCAGGAGUUUACUCCUGCUAUUUCAACAGCUCGCAGUCAAG	-0.153
GGUCACGUCUCAAUCAACUCUAUCUCAGGAGUUUUCUCCUGUUUUUUCAACAGCUCGCAGUCAAG	-0.105

Sequence	binding signal (log2 fold change)
GGUCACGUCUCAAUCAACUCUUUUCCCAGGGAAAGCCCUGGUUAUGUCAACAGCUCGCAGUCAAG	0.0462
GGUCACGUCUCAAUCAACUCCAAAGAGGGGGGGAAAACCCCUUUACCCUCAAUUUCAACAGCUCGCAGUCAAG	-0.558
GGUCACGUCUCAAUCAACUCAUCGCCAGGAGUUUCCUCCUGUAAAUUCAACAGCUCGCAGUCAAG	-0.128
GGUCACGUCUCAAUCAACUCAUUUCCAGGAGUUUGCUCCUGCUAUCUCAACAGCUCGCAGUCAAG	0.0256
GGUCACGUCUCAAUCAACUCAACGCCAGGAGUUUACUCCUGUUUUUUCAACAGCUCGCAGUCAAG	-0.141
GGUCACGUCUCAAUCAACUCAAUGUCAGGAGUUUCCUCCUGUUAAUUCAACAGCUCGCAGUCAAG	-0.0697
GGUCACGUCUCAAUCAACUCCACGGAGGGGGGGAAAACCCCUUUACCCUCACUUUCAACAGCUCGCAGUCAAG	0.177
GGUCACGUCUCAAUCAACUCCUUCGAGGGGGGGAAAACCCCUUUACCCUCAUCUUCAACAGCUCGCAGUCAAG	0.0798
GGUCACGUCUCAAUCAACUCAUCCUCAGGAGUUUGCUCCUGUAAUUUCAACAGCUCGCAGUCAAG	0.0494
GGUCACGUCUCAAUCAACUCCCACGAGGGGGGGAAAACCCCUUUACCCUCAUUAUCAACAGCUCGCAGUCAAG	0.227
GGUCACGUCUCAAUCAACUCUAUCUCAGGAGUUUCCUCCUGCAAAUUCAACAGCUCGCAGUCAAG	0.109
GGUCACGUCUCAAUCAACUCAGUUUCAGGAGUUUUCUCCUGCAUUCUCAACAGCUCGCAGUCAAG	-0.0965
GGUCACGUCUCAAUCAACUCAAUCUCCAGGGAAAGCCCUGGCAUACUCAACAGCUCGCAGUCAAG	-0.0986
GGUCACGUCUCAAUCAACUCCCAAGAGGGGGGGAAAACCCCUUUGCCCUCCAAAUCAACAGCUCGCAGUCAAG	-0.0614
GGUCACGUCUCAAUCAACUCUUCCUCCAGGGAAAGCCCUGGCUAAUUCAACAGCUCGCAGUCAAG	-0.115
GGUCACGUCUCAAUCAACUCAAAUGAGGGGGGGAAAACCCCUUUACCCUCCACAUCAACAGCUCGCAGUCAAG	-0.354
GGUCACGUCUCAAUCAACUCAGUCUCAGGAGUUUGCUCCUGCUUUCUCAACAGCUCGCAGUCAAG	0.0674
GGUCACGUCUCAAUCAACUCAACUCCAGGAGUUUACUCCUGCAUAUUCAACAGCUCGCAGUCAAG	0.185
GGUCACGUCUCAAUCAACUCUAUCUCCAGGGAAAACCCUGGCUUUCUCAACAGCUCGCAGUCAAG	0.0859
GGUCACGUCUCAAUCAACUCAACAGAGGGGGGGAAAACCCCUUUGCCCUCCAAUUCAACAGCUCGCAGUCAAG	-0.0237
GGUCACGUCUCAAUCAACUCAAUUUCCAGGGAAAGCCCUGGUUUUCUCAACAGCUCGCAGUCAAG	-0.152
GGUCACGUCUCAAUCAACUCUUUUUCCAGGGAAAGCCCUGGCAAUUUCAACAGCUCGCAGUCAAG	-0.187
GGUCACGUCUCAAUCAACUCAGAAGAGGGGGGGAAAACCCCUUUACCCUCAAUAUCAACAGCUCGCAGUCAAG	-0.434
GGUCACGUCUCAAUCAACUCUUCGUCCAGGGAAAACCCUGGUUAUCUCAACAGCUCGCAGUCAAG	0.104
